In PubChem BioAssay AID504332 (National Center for Advancing Translational Sciences (NCATS), 2011):
The campaign covered roughly 350,000 compounds. About 31,000 (8.9%) were called active. The shares of active, inactive and inconclusive entries below differ from those in the screen. Calls follow the shape of the dose curve; as a rule, active = well fitted inhibition curve with a large enough effect; inconclusive = small, poorly fitted or top-dose-only effect; inactive = no such curve, though single readings can be large or run the other way. Where the call is inconclusive, the potency comes from a doubtful curve fit.

molecular target: Histone-lysine N-methyltransferase EHMT2 (Homo sapiens) (UniProt Q96KQ7); test: qHTS Assay for Inhibitors of Histone Lysine Methyltransferase G9a; conditions: G9a H3K9 monomethylation, AlphaScreen, 2 h; activity, negative = inhibition: at 59 µM (top of the series) unless noted; also: nearly all actives have a fitted effect of over 75% in size
Procedure, shortened: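 AlphaScreen detection with an anti-monomethyl H3K9 antibody quantified product after a 2 h room-temperature reaction containing 500 nM biotinylated H3K9 peptide, 20 µM SAM and 20 nM enzyme, which had been preincubated 15 min with compound.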
% is scaled to controls: 0 for no effect and ±100 for the full control effect; potency is read from the fitted curve at half-maximal effect; tags tell the direction and shape of the fitted curve.

UniProt Q96KQ7, sequence (Q96KQ7 whole entry, looked up): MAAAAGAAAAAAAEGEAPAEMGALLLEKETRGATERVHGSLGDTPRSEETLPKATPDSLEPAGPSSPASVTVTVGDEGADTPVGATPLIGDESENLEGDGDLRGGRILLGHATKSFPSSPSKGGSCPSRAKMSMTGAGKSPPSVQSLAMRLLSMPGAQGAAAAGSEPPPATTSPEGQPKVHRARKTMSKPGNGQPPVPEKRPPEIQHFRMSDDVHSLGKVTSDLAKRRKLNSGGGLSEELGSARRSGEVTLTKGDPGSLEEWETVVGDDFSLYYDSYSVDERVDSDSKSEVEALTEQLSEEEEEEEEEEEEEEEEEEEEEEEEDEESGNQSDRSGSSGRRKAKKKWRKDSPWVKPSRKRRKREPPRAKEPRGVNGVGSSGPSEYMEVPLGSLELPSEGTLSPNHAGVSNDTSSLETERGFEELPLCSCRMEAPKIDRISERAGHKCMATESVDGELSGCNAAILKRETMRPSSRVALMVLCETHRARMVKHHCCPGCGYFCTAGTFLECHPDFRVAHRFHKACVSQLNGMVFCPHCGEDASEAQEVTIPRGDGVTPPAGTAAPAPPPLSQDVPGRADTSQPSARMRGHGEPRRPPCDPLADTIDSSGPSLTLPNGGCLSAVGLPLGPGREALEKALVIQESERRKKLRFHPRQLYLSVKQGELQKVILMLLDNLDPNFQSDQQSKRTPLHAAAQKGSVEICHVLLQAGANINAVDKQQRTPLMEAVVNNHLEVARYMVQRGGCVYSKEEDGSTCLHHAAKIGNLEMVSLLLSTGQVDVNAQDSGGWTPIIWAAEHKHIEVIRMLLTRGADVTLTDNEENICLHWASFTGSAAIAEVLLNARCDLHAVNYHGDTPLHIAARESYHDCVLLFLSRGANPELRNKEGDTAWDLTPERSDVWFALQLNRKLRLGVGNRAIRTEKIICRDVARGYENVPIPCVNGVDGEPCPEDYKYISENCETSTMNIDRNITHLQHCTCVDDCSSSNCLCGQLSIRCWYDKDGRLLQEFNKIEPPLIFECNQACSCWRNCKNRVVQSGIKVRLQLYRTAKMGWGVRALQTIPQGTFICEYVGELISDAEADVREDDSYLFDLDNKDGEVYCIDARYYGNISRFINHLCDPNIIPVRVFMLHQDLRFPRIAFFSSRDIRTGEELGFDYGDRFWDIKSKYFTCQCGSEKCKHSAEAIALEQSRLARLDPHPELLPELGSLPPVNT

SMILES	Potency	activity, negative = inhibition
CCOc1ccc(C(=O)c2nc3c(n2O)CCCC3)cc1	inconclusive: 50.1 µM [inhibitor, partial curve]	–
COc1ccc(N2CC(C(=O)Nc3nc4ccc(OC)cc4s3)CC2=O)cc1 (stereo not given)	inconclusive: 70.8 µM [inhibitor, single point]	–
CC1CCCCN1C(=O)Cn1cc(/C=C2/C(=O)Nc3ccccc32)c2ccccc21 (stereo not given)	inconclusive: 28.2 µM [inhibitor, full curve]	–
COc1ccc(C(C)=O)cc1CSc1nncn1C	inconclusive: 50.1 µM [inhibitor, partial curve]	–
Cc1nn(C)cc1/C=N\NC(=O)c1csc2c1CCCC2	inactive	–
CCOC(=O)/C(C#N)=C(\O)c1ccc(NC(=O)c2ccc([N+](=O)[O-])cc2)cc1	inconclusive: 39.8 µM [inhibitor, single point]	–
O=C(NC1CC(=O)N(c2cccc(F)c2)C1)c1ccc(S(=O)(=O)N2CCCCC2)cc1 (stereo not given)	inactive	–
O=C(O)/C=C\C(=O)Nc1ccc(N2CCN(c3ccc(Cl)cc3)CC2)cc1	active: 10 µM	–
Cc1cccc(NC(=O)CSc2nnc(CNC(=O)c3ccco3)o2)c1	active: 11.2 µM	–
COC(=O)c1c(NC(=O)c2ccoc2C)sc2c1CCC2	inconclusive: 31.6 µM [inhibitor, partial curve, poor fit]	–
COc1ccc(CCNC(=O)COC(=O)c2ccc(C)s2)cc1	inconclusive: 39.8 µM [inhibitor, single point]	–
O=C(c1ccc(=O)[nH]n1)N1CCN(S(=O)(=O)c2cccc(F)c2)CC1	inactive	–
Cc1ccc(O)c(C(=O)c2cnc3c(c2)c(=O)n(C)c(=O)n3C)c1	inconclusive: 79.4 µM [inhibitor, single point]	–
CC(=O)Nc1ccc(NC(=O)c2ccc3c(c2)CCN3S(=O)(=O)c2ccc(Cl)cc2)cc1	inactive	–
COc1ccc(-c2cc(C(=O)N3CCN(c4cccc(C)c4C)CC3)c3ccccc3n2)cc1OC	inconclusive: 89.1 µM [inhibitor, partial curve, poor fit]	–
Cn1c(=O)[nH]c(=O)c2c1nc(N1CCN(CCO)CC1)n2CCSc1nc2ccccc2s1	inconclusive: 89.1 µM [inhibitor, single point]	–
O=C(CCNc1ccc(F)cc1)c1ccco1	–	inactive: -47.7% [at 12.7 µM]
NC(=O)c1ccc(NC(=O)c2cc(S(=O)(=O)N3CCCCC3)ccc2N2CCOCC2)cc1	inconclusive: 22.4 µM [inhibitor, single point]	–
COc1cccc(NC(=O)CSc2nnc3[nH]c(=O)cc(-c4ccccc4)n23)c1	inconclusive: 1.26 µM [inhibitor, partial curve, poor fit]	–
CCCSc1nnc2c(n1)OC(c1cccn1C)N(C(C)=O)c1ccccc1-2 (stereo not given)	inconclusive: 89.1 µM [inhibitor, single point]	–

SMILES	Potency	activity, negative = inhibition
CCCc1nc2nc(C)c(NS(=O)(=O)c3ccc(C)c(C)c3)c(=O)n2[nH]1	inactive	–
O=c1[nH]c(=S)[nH]c2c1CN(Cc1ccc(F)cc1)CC2	–	inconclusive: -113% [inhibitor]
O=C(CSc1nc2ccccc2[nH]1)c1cccs1	inconclusive: 50.1 µM [inhibitor, partial curve]	–
O=[N+]([O-])C(/C=C(\Cl)[N+](=O)[O-])=C(N1CCCCC1)N1CCCCC1	inconclusive: 79.4 µM [inhibitor, partial curve, poor fit]	–
O=C1CCc2cc(S(=O)(=O)N3CCN(Cc4ccc5c(c4)OCO5)CC3)ccc2N1	inconclusive: 79.4 µM [inhibitor, single point]	–
Cc1cc(C(=O)OCC(=O)Nc2ccccc2C#N)c(C)o1	inconclusive: 89.1 µM [inhibitor, partial curve, poor fit]	–
O=C(Nc1cccnc1)c1ccc(CN2CCc3ccccc3C2)cc1	inconclusive: 28.2 µM [inhibitor, single point]	–
CCC1Nc2ncnc(N3CCCCC3)c2N(Cc2ccc(Br)cc2)C1=O (stereo not given)	inconclusive: 8.91 µM [inhibitor, single point]	–
CCOC(=O)N1CCN(Cc2nc3ccc([N+](=O)[O-])cc3c(=O)n2-c2ccc(OC)cc2OC)CC1	inconclusive: 89.1 µM [inhibitor, single point]	–
Cc1ccc(Cn2c(C(=O)O)c(CNCCc3cccs3)c3ccc(C)cc32)cc1	inconclusive: 25.1 µM [inhibitor, partial curve, poor fit]	–
C#CCOCCOCCOCCNc1nc(N2CCN(C(=O)[C@H]([C@@H](C)CC)n3cc([C@@H](N)CO)nn3)CC2)nc(N2CCN(C(=O)[C@H](CCCCN)n3cc([C@@H](N)C(C)CC)nn3)CC2)n1 (stereo not given in full)	–	inactive: 11.6% [at 12.7 µM]
c1ccc(Cn2nnnc2C(c2cccnc2)N2CCN(c3ccccc3)CC2)cc1 (stereo not given)	inconclusive: 79.4 µM [inhibitor, single point]	–
Cc1ccc2c(c1)[C@@H]1CN(C)CC[C@@H]1N2S(=O)(=O)c1ccc([N+](=O)[O-])cc1	inconclusive: 22.4 µM [inhibitor, single point]	–
C#CCNc1nc(CC)nc2c1nnn2Cc1ccccc1F	inactive	–
CN(C)c1ccc(C(CNC(=O)c2ccccc2Cl)N2CCc3ccccc32)cc1 (stereo not given)	active: 14.1 µM	–
CN1CCN(CCCNC(=O)c2ccc(/C=C3\Oc4ccccc4N(Cc4ccc(Cl)cc4)C3=O)cc2)CC1	inconclusive: 44.7 µM [inhibitor, partial curve, poor fit]	–
CCCCc1ccc(NC(=S)N2CCN(c3ccccn3)CC2)cc1	inconclusive: 1.58 µM [inhibitor, partial curve, poor fit]	–
Cc1ccc(Nc2nc(N)nc(CN3CCN(Cc4ccccc4)CC3)n2)cc1Cl	active: 50.1 µM	–
COc1ccc(NC(=S)N(CCCN2CCCCC2)Cc2cccs2)cc1	inconclusive: 20 µM [inhibitor, partial curve, poor fit]	–
COc1ccc(C[C@H]2CN3C(=NC[C@@H]3Cc3ccc(O)cc3)N2C[C@H](C)NC(=O)CCC2CCCCC2)cc1	–	inactive: 8.68% [at 12.7 µM]
